Publication PMC11369174, “Proteome-scale characterisation of motif-based interactome rewiring by disease mutations” (Molecular Systems Biology, 2024)
Results are given in words; binding and its absence hold for the method and conditions named.

Sequences of proteins named here, by UniProt entry; tags and fusion partners are left off. Residues count along the entry.
UniProt O14936, residues 12-276: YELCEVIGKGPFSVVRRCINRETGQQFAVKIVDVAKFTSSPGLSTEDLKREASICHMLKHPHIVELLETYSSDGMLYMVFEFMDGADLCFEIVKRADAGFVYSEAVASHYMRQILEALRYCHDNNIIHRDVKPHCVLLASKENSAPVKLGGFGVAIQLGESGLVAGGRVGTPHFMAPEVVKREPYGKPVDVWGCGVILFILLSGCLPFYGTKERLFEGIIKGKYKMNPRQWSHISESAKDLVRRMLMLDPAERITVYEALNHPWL
UniProt Q13283, residues 11-133: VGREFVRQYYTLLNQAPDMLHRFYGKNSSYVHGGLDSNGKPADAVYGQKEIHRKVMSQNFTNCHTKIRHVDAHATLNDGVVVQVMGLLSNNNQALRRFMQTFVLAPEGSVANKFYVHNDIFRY

T1: Ras-GTPase-activating protein-binding protein 2 (G3BP2) NTF2 domain (human) (UniProt Q9UN86)
T1 sequence: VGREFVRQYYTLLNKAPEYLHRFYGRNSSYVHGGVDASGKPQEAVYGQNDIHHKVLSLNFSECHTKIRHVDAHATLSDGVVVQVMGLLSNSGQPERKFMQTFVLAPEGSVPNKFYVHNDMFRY


Assays:
Assay in all cases: fluorescence polarisation; displacement: unlabelled peptide titrated onto a complex of FITC-labelled peptide (10 nM) and protein domain (1-2x KD); 50 mM sodium phosphate buffer pH 7.4 (CASK: plus 100 mM NaCl); KD calculated from IC50; technical triplets; both purified
[1] = target: peripheral plasma membrane protein CASK (CASK) kinase domain (human) (UniProt O14936)
[2] = target: Ras-GTPase-activating protein-binding protein 1 (G3BP1) NTF2 domain (human) (UniProt Q13283)
[3] = target: T1, Ras-GTPase-activating protein-binding protein 2 (G3BP2) NTF2 domain (human)

Binder | binding [1] | other results
YSGDTSPRHLSNVSST [MAPT 717-731 wild-type peptide] | no binding | 
MSDSWVPNSASGQDPG [FANCA 1-16 wild-type peptide] | no binding | 
QQSYLDSGIHSGATTT [CTNNB1_(27-42) wild-type peptide] |  | binding [2]: no binding
DLLTCGQAQMNFPY [BCL11A_(44-56) wild-type peptide] |  | binding [3]: no binding
